Structures are written as SMILES. Hit rate of the full screen: of about 310,000 compounds, about 2,200 (0.71%) showed an effect of 50% or more. The effect is printed as a negative number. The list shows a part of the results.

The target of this test is human ether-à-go-go-related gene (hERG) potassium channel (human, UniProt Q12809). Description: primary screen, population patch clamp on CHO cells stably expressing hERG.
Sequence of human ether-à-go-go-related gene (hERG) potassium channel (Q12809 whole entry, looked up): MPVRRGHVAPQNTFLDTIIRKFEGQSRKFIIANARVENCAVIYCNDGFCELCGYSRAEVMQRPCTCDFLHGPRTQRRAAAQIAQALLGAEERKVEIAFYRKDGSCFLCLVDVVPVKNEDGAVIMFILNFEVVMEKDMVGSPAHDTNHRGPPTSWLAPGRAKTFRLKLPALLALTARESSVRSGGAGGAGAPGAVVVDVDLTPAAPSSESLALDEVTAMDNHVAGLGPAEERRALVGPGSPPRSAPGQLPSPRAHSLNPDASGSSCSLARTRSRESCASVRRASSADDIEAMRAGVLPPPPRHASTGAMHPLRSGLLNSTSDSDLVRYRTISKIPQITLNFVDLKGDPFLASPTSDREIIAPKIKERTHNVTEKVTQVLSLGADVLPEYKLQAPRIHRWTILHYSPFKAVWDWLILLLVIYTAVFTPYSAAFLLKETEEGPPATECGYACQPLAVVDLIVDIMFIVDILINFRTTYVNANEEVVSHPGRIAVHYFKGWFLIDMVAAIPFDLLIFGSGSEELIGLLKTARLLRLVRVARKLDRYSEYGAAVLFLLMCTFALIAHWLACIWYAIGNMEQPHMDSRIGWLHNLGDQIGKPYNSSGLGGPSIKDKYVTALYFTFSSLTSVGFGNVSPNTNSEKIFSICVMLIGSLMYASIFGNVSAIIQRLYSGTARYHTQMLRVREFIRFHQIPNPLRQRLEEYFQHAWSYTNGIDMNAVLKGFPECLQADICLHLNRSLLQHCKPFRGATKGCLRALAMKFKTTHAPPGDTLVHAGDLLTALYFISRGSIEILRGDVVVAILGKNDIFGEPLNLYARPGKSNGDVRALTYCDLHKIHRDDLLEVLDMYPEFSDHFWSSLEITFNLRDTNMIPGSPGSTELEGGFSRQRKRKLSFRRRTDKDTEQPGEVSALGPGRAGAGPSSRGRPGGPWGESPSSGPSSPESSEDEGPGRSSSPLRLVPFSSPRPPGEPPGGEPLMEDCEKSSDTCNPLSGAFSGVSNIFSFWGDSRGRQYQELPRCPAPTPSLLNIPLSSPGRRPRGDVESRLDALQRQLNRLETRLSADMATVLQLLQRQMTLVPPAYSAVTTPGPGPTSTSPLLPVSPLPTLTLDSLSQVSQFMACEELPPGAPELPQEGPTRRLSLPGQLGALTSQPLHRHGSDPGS
Take `CCn1c(SCc2nc3ccccc3[nH]2)nnc1-c1cccs1`: the “hERG current change (%, negative = inhibition) at 1uM” value was -16.5%.
For `O=C(O)CSc1nnc(Nc2ccccc2)n1-c1ccccc1`, the “hERG current change (%, negative = inhibition) at 1uM” value was 15.9%.
Turning to `Cc1cccc(N2CC(C(=O)NCCC3=CCCCC3)CC2=O)c1C` (stereo not shown), the “hERG current change (%, negative = inhibition) at 1uM” value was 7.01%.
Turning to `O=C(CNC(=O)c1ccc(OC(F)F)cc1)NCC1(N2CCOCC2)CCCCC1`, the “hERG current change (%, negative = inhibition) at 1uM” value is reported as -31.7%.
`CC(C)c1ccc(/C=N/N2CCN(c3ccccn3)CC2)cc1`: the “hERG current change (%, negative = inhibition) at 1uM” value worked out at 13.4%.
With `c1cnc2c(Oc3ncnc4sccc34)cccc2c1` the figure was 3.15%.
As to `Nc1c(C(=O)Nc2nc3ccccc3s2)sc2nc(-c3cccs3)ccc12`, the “hERG current change (%, negative = inhibition) at 1uM” value came out at 2.75%.
In the case of `CC(=O)N1c2ccc(S(=O)(=O)N3CCCC3)cc2CC1C(=O)Nc1cc(C)cc(C)c1` (stereo not shown) it was 0.812%; in that of `CCN1C(=O)N(c2cccc3ccccc23)C(C)=CC1(C)C`, 5.51%.
As for `Cc1[nH]n(-c2ccccc2)c(=O)c1/C=N/NC(=O)c1ccccc1F`, the “hERG current change (%, negative = inhibition) at 1uM” value worked out at 12.3%.
With `CC(Nc1nc(-c2ccc(F)cc2)cs1)c1nc2cc(Cl)c(Cl)cc2n1CCOCCO` (stereo not shown) the figure was 1.95%.
As for `CC1CCCN(C(=O)c2ccc(N3CC4CC(C3)c3cccc(=O)n3C4)c([N+](=O)[O-])c2)C1` (stereo not shown), the “hERG current change (%, negative = inhibition) at 1uM” value is 5.59%.
In the case of `Cc1ccc(-c2noc(CSc3nnc(Cc4ccccc4)n3-c3cccc(C)c3)n2)cc1`, the “hERG current change (%, negative = inhibition) at 1uM” value is recorded as -4.69%.
Consider `CCCCC(=O)N(c1ccc(C)c(C)c1)C1C=CS(=O)(=O)C1` (stereo not shown), for which the “hERG current change (%, negative = inhibition) at 1uM” value is given as 12.7%.
In the case of `CCn1c(SCC(=O)N2CCN(c3ccccc3)CC2)nc2c(c1=O)SC(C)C2` (stereo not shown), the “hERG current change (%, negative = inhibition) at 1uM” value is on record as -0.0715%.
In the case of `CC(C)COP(=O)(OCC(C)C)C(Nc1ccccc1)c1ccccc1` (stereo not shown), the “hERG current change (%, negative = inhibition) at 1uM” value is recorded as 8.62%.
Take `Cc1ccc(NC(=O)CN(c2ccccc2)S(=O)(=O)N(C)C)cc1C`: the “hERG current change (%, negative = inhibition) at 1uM” value was determined as 12.8%.
On to `CCCNC(=O)CCc1cc(C(C)(C)C)c(O)c(C(C)(C)C)c1`, for which the “hERG current change (%, negative = inhibition) at 1uM” value came to 13.6%.
In the case of `Cc1ccc(NCc2nnc(SCCN3CCCCC3)n2CC2CCCO2)c(C)c1` (stereo not shown), the “hERG current change (%, negative = inhibition) at 1uM” value is -10.7%.
In the case of `COC(=O)Nc1ccc2c(c1)N(C(=O)CCN1CCOCC1)c1ccccc1S2.Cl`, the “hERG current change (%, negative = inhibition) at 1uM” value amounted to 7.18%.
With `COc1cc(/C=N/NC(=O)c2ccccc2)ccc1OS(=O)(=O)c1ccccc1`, the “hERG current change (%, negative = inhibition) at 1uM” value is on record as 4.34%.
Turning to `CCC(=O)NNc1ccc(Br)cc1`, the “hERG current change (%, negative = inhibition) at 1uM” value is given as 4.6%.
With `Cc1nnc(SCCn2c(N3CCC(C)CC3)nc3c2c(=O)[nH]c(=O)n3C)s1` the figure was 10.3%.
For `Cc1c(C(=O)N2CCN(C(=O)c3ccccc3)CC2)oc2ccc(F)cc12`, the “hERG current change (%, negative = inhibition) at 1uM” value was -5.86%.
Take `COC(=O)C(=C/C(C)=C/c1cccnc1)C(=O)OC`: the “hERG current change (%, negative = inhibition) at 1uM” value is listed as 5.72%.
In the case of `CCNc1nc(NCC)nc(N(C)n2cnnc2)n1` it was -14.5%.
With `CCC1[NH+]=C(SC)NC(C)=C1C(=O)c1ccccc1.[I-]` (stereo not shown) the figure was -8.23%.
Consider `COCCn1c(SCC(=O)Nc2cccc(C(=O)OC)c2)nc2ccccc2c1=O`, for which the “hERG current change (%, negative = inhibition) at 1uM” value is on record as -26.7%.
Consider `CCOC(=O)C1CCCN(S(=O)(=O)c2ccc(C)cc2)C1` (stereo not shown), for which the “hERG current change (%, negative = inhibition) at 1uM” value is -3.61%.
Consider `Nc1nc2c(F)cccc2s1`, for which the “hERG current change (%, negative = inhibition) at 1uM” value was 17.7%.
With `CCOC(=O)Nc1c(C)n(C)n(-c2ccccc2)c1=O` the figure was 5.85%; with `CCN1C(=O)c2ccccc2S(=O)(=O)c2ccc(C(=O)NCCCN(CC(C)C)CC(C)C)cc21`, 6.62%.
With `COc1ccc(N2CCN(c3nc(NC(C)(C)C)nc(N4CCCCC4)n3)CC2)cc1` the figure was 8.28%; with `CCCc1cc(=O)[nH]c(SCC(=O)Nc2cc(C)on2)n1`, -39.7%.
For the molecule `O=C(NCc1ccncc1)C(=O)Nc1nc(C23CC4CC(CC(C4)C2)C3)cs1`, the “hERG current change (%, negative = inhibition) at 1uM” value was found to be 0.149%.
In the case of `O=S(=O)(O)c1nc2ccccc2n1Cc1cccc2ccccc12`, the “hERG current change (%, negative = inhibition) at 1uM” value was 17.2%.
With `O=S(=O)(c1ccc(F)cc1)N1CCN=C1SCc1cccc(F)c1`, the “hERG current change (%, negative = inhibition) at 1uM” value was 5.87%.
For `CCc1nnc(NC(=O)C(=O)NCCOC(=O)c2ccccc2Cl)s1`, the “hERG current change (%, negative = inhibition) at 1uM” value turned out to be 10.1%.
Take `COc1ccc(NC(=O)COc2coc(CN3CCc4ccccc4C3)cc2=O)cc1`: the “hERG current change (%, negative = inhibition) at 1uM” value is recorded as -4.74%.
In the case of `N#C/C(=C\Nc1ccc2c(c1)OCCO2)c1nc2ccccc2[nH]1` it was 4.33%; in that of `NS(=O)(=O)c1ccc(CCNC(=O)Nc2ccc(Cl)cc2)cc1`, -2.21%; in that of `CN=C1SC(CC(=O)Nc2ccc(N3CCOCC3)cc2)C(=O)N1C` (stereo not shown), 1.66%.
In the case of `CC1CCCC(N2CCN(S(=O)(=O)c3ccccc3)CC2)C1.O=C(O)C(=O)O` (stereo not shown) it was 13.7%; in that of `CCOc1ccc(CN(C)CCc2ccccn2)cc1.O=C(O)C(=O)O`, -58.8%; in that of `Cc1nn(Cc2ccccc2)c2c1C(c1ccncc1)C(C#N)=C(N)O2` (stereo not shown), 8.88%.
For the molecule `CC12CCC(=O)N1C(C(=O)Nc1nc3ccc(S(C)(=O)=O)cc3s1)CS2` (stereo not shown), the “hERG current change (%, negative = inhibition) at 1uM” value is listed as 15.9%.
With `Cc1ccc(S(=O)(=O)NNC(=O)C2COc3ccccc3O2)cc1C` (stereo not shown) the figure was 18.3%.
In the case of `CCC(=O)Nc1ccc(N2CCCCC2)c(C(=O)Nc2ccccc2C)c1` it was 16.9%.
With `CC(C)n1cnc2c(Nc3ccc(F)c(Cl)c3)nc(NCCO)nc21`, the “hERG current change (%, negative = inhibition) at 1uM” value is -0.419%.
On to `C/C(=N\O)c1c(O)cc(-c2ccccc2)n(-c2ccccc2)c1=O`, for which the “hERG current change (%, negative = inhibition) at 1uM” value turned out to be 12%.
Consider `Cc1cccc(/C=N\NC(=O)c2csnn2)c1`, for which the “hERG current change (%, negative = inhibition) at 1uM” value is given as 8.11%.
For `CCOC(=O)c1csc(NC(=O)c2ccc(N3C(=O)CCC3=O)cc2)n1`, the “hERG current change (%, negative = inhibition) at 1uM” value amounted to 5.49%.
As to `Cc1ccccc1CN(C)CC(=O)Nc1c(C)cccc1C(C)C`, the “hERG current change (%, negative = inhibition) at 1uM” value amounted to 10.4%.
With `CN(c1ccc(F)cc1)S(=O)(=O)c1ccc(Cl)c(C(=O)NC2(C)CCS(=O)(=O)C2)c1` (stereo not shown) the figure was 15.9%; with `CCOC(=O)C1=C(CSCc2ccccc2)NC(=O)NC1c1cc(C)ccc1C` (stereo not shown), 11.1%.
Regarding `O=C(COc1cccc(F)c1)N[C@@H](Cc1ccccc1)c1nc2ccccc2[nH]1`, the “hERG current change (%, negative = inhibition) at 1uM” value turned out to be 12.9%.
Consider `CCn1c2ccccc2c2nc3ccccc3nc21`, for which the “hERG current change (%, negative = inhibition) at 1uM” value is on record as 12.2%.
`Cc1ccc(OCCn2c3ccccc3n3nc(C)c(=O)nc23)cc1`: the “hERG current change (%, negative = inhibition) at 1uM” value was determined as 14.4%.
For `CCN1CCN(c2ncc(C(=O)N3CCCc4ccccc43)c3ccccc23)CC1`, the “hERG current change (%, negative = inhibition) at 1uM” value is listed as -11.6%.
For the molecule `Cc1csc(NC(=O)c2cccn2C)n1`, the “hERG current change (%, negative = inhibition) at 1uM” value came out at 10.7%.
With `CC1Sc2ccc(S(=O)(=O)CCC(=O)NCc3cccs3)cc2NC1=O` (stereo not shown) the figure was 13.1%.
Consider `COc1ccc(OC)c(NC(=O)C2CC(=O)n3ncnc3N2)c1` (stereo not shown), for which the “hERG current change (%, negative = inhibition) at 1uM” value is reported as -6.75%.
In the case of `O=C(N/N=C/c1cccc(O)c1)c1ccc(COc2ccccc2Br)cc1` it was 1.93%; in that of `CCc1nc2ccccc2n1Cc1ccc(OC)c(OC)c1`, -1.45%.
Turning to `COC(=O)c1c(C)nc2ccccc2c1C(=O)O`, the “hERG current change (%, negative = inhibition) at 1uM” value is given as 12.5%.
For the molecule `O=C(Cc1csc(-c2ccc(F)cc2)n1)Nc1cccc(S(=O)(=O)NC2=NCCC2)c1`, the “hERG current change (%, negative = inhibition) at 1uM” value amounted to 2.99%.
For `Cc1cc2c(c(=O)o1)C(c1ccc([N+](=O)[O-])o1)C(C#N)=C(N)O2` (stereo not shown), the “hERG current change (%, negative = inhibition) at 1uM” value is reported as 4.84%.
With `CC(/C=N/NC(=O)c1cnccn1)=C\c1ccco1`, the “hERG current change (%, negative = inhibition) at 1uM” value is listed as 8.74%.
In the case of `CCOC(=O)Cc1csc(SCC(=O)NC(C)C23CC4CC(CC(C4)C2)C3)n1` (stereo not shown) it was 2.08%; in that of `O=C(CCCNC(=O)c1ccc(Cl)cc1)Nc1cccc(S(=O)(=O)N2CCCCC2)c1`, 6.48%; in that of `O=S(=O)(c1ccccc1)N1CCN(C(=S)Nc2ccc(Br)cc2)CC1`, 14.5%.
Turning to `Cc1ccccc1C(=O)NC1CCN(Cc2nnnn2Cc2ccc(F)cc2)CC1`, the “hERG current change (%, negative = inhibition) at 1uM” value is reported as -10.8%.
In the case of `FC(F)(F)c1ccc(CN2CCN(Cc3ccco3)CC2)cc1.O=C(O)C(=O)O` it was 7.41%; in that of `Cc1ccc(S(=O)(=O)Nc2ccccc2F)cc1C(=O)N1CCCC1`, 8.68%.
With `CCN(CC(=O)N1CCCC1)S(=O)(=O)c1cc(C)ccc1OC`, the “hERG current change (%, negative = inhibition) at 1uM” value was 14.8%.
In the case of `Cc1ccc(C(C(=O)NC(C)(C)C)N(C(=O)c2csnn2)c2cccc(F)c2)o1` (stereo not shown), the “hERG current change (%, negative = inhibition) at 1uM” value was determined as 11.6%.
Consider `Cc1ccn2c(=O)nc(SCC(=O)NC3CCCCC3)nc2c1`, for which the “hERG current change (%, negative = inhibition) at 1uM” value was determined as 2.62%.
Take `Cc1cc(/C=C2/C(=O)NC(=O)N(C)C2=O)c(C)n1-c1ccccc1`: the “hERG current change (%, negative = inhibition) at 1uM” value was found to be 12.1%.
For `O=C(NC1CC1)c1ccc(COc2ccc(F)cc2)o1`, the “hERG current change (%, negative = inhibition) at 1uM” value is listed as 11.8%.
Turning to `O=C(Nc1nc2ccccc2s1)c1ccc(N2CCCCC2)c([N+](=O)[O-])c1`, the “hERG current change (%, negative = inhibition) at 1uM” value worked out at 9.52%.
For `Cn1c(SCC(=O)NC2CC2)nnc1-c1ccco1`, the “hERG current change (%, negative = inhibition) at 1uM” value was 16.3%.
Take `CCn1cc(C(=O)NCCCN2CCCCCC2)c(=O)c2cc(S(=O)(=O)N3CCc4ccccc4C3)ccc21`: the “hERG current change (%, negative = inhibition) at 1uM” value is -24.5%.
With `O=C(NCCN1CCOCC1)c1ccccc1Oc1ccccc1`, the “hERG current change (%, negative = inhibition) at 1uM” value is on record as -4.89%.
With `CCc1ccc(NC(=O)CCNS(=O)(=O)c2cccc3nonc23)cc1` the figure was 25.5%; with `COC(=O)CNC(=O)CN1C(=O)N(c2ccc(Cl)cc2)C(N(O)C(=O)Nc2ccc(Cl)cc2)C1(C)C` (stereo not shown), 9.64%; with `O=C(NC(=O)c1ccc(Cl)cc1)Nc1ccc(-c2cnco2)cc1`, 12%.
With `Cc1nc2c(C)cccc2c2c1COC2` the figure was 14%; with `Cl.O=S(=O)(NCCN1CCOCC1)c1ccc(F)c(Cl)c1`, 13.5%.

(Values after paper PMC4336329 (PLoS ONE, 2015).)
